Reference: PMC9911399, “Two distinct binding modes provide the RNA-binding protein RbFox with extraordinary sequence specificity”
Positions count from the first letter of the chain named. The list shows a part of the results.

T1: RBFOX1 RRM (Homo sapiens, UniProt Q9NWB1 109-208)
T1 sequence: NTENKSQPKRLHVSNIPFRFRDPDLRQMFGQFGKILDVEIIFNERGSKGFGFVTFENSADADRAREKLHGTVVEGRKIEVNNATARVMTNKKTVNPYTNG

B1: AGAGCGC (DNA:RNA)
RNA: GGGAGACCGGAAUUCAGAUUGUCCAGAGCGCUUAAAUCCCGUCGUAGCCACCA
DNA 1: CAATCTGAATTCCGGTCTCCC
DNA 2: TGGTGGCTACGACGGGATT
B2: UAUUUUG (DNA:RNA)
RNA: GGGAGACCGGAAUUCAGAUUGUCCUAUUUUGUUAAAUCCCGUCGUAGCCACCA
DNA 1: CAATCTGAATTCCGGTCTCCC
DNA 2: TGGTGGCTACGACGGGATT
B3: UACAUCA (DNA:RNA)
RNA: B2 RNA with U27C, U28A, U30C, G31A
DNA 1: CAATCTGAATTCCGGTCTCCC
DNA 2: TGGTGGCTACGACGGGATT
B4: CUAAAUA (DNA:RNA)
RNA: B1 RNA with A25C, G26U, G28A, C29A, G30U, C31A
DNA 1: CAATCTGAATTCCGGTCTCCC
DNA 2: TGGTGGCTACGACGGGATT
B5: AAUUAGC (DNA:RNA)
RNA: B1 RNA with G26A, A27U, G28U, C29A
DNA 1: CAATCTGAATTCCGGTCTCCC
DNA 2: TGGTGGCTACGACGGGATT
B6: CACAAAC (DNA:RNA)
RNA: B1 RNA with A25C, G26A, A27C, G28A, C29A, G30A
DNA 1: CAATCTGAATTCCGGTCTCCC
DNA 2: TGGTGGCTACGACGGGATT
B7: UUUGAAU (DNA:RNA)
RNA: B2 RNA with A26U, U28G, U29A, U30A, G31U
DNA 1: CAATCTGAATTCCGGTCTCCC
DNA 2: TGGTGGCTACGACGGGATT
B8: CACAGCA (DNA:RNA)
RNA: B2 RNA with U25C, U27C, U28A, U29G, U30C, G31A
DNA 1: CAATCTGAATTCCGGTCTCCC
DNA 2: TGGTGGCTACGACGGGATT
B9: UUAAUAU (DNA:RNA)
RNA: B2 RNA with A26U, U27A, U28A, U30A, G31U
DNA 1: CAATCTGAATTCCGGTCTCCC
DNA 2: TGGTGGCTACGACGGGATT
B10: UCGGGUA (DNA:RNA)
RNA: B2 RNA with A26C, U27G, U28G, U29G, G31A
DNA 1: CAATCTGAATTCCGGTCTCCC
DNA 2: TGGTGGCTACGACGGGATT
B11: UCCGCUA (DNA:RNA)
RNA: B1 RNA with A25U, G26C, A27C, G30U, C31A
DNA 1: CAATCTGAATTCCGGTCTCCC
DNA 2: TGGTGGCTACGACGGGATT
B12: CUUGGCU (DNA:RNA)
RNA: B1 RNA with A25C, G26U, A27U, C29G, G30C, C31U
DNA 1: CAATCTGAATTCCGGTCTCCC
DNA 2: TGGTGGCTACGACGGGATT
B13: GGGAAGA (DNA:RNA)
RNA: B1 RNA with A25G, A27G, G28A, C29A, C31A
DNA 1: CAATCTGAATTCCGGTCTCCC
DNA 2: TGGTGGCTACGACGGGATT
B14: UUCAUAA (DNA:RNA)
RNA: B2 RNA with A26U, U27C, U28A, U30A, G31A
DNA 1: CAATCTGAATTCCGGTCTCCC
DNA 2: TGGTGGCTACGACGGGATT
B15: AUCGAUU (DNA:RNA)
RNA: B1 RNA with G26U, A27C, C29A, G30U, C31U
DNA 1: CAATCTGAATTCCGGTCTCCC
DNA 2: TGGTGGCTACGACGGGATT
B16: CAGGAGA (DNA:RNA)
RNA: B1 RNA with A25C, G26A, A27G, C29A, C31A
DNA 1: CAATCTGAATTCCGGTCTCCC
DNA 2: TGGTGGCTACGACGGGATT
B17: UUACUUU (DNA:RNA)
RNA: B2 RNA with A26U, U27A, U28C, G31U
DNA 1: CAATCTGAATTCCGGTCTCCC
DNA 2: TGGTGGCTACGACGGGATT
B18: AAUUAUC (DNA:RNA)
RNA: B2 RNA with U25A, U29A, G31C
DNA 1: CAATCTGAATTCCGGTCTCCC
DNA 2: TGGTGGCTACGACGGGATT
B19: CACCGUA (DNA:RNA)
RNA: B2 RNA with U25C, U27C, U28C, U29G, G31A
DNA 1: CAATCTGAATTCCGGTCTCCC
DNA 2: TGGTGGCTACGACGGGATT
B20: CCACGCC (DNA:RNA)
RNA: B1 RNA with A25C, G26C, G28C, C29G, G30C
DNA 1: CAATCTGAATTCCGGTCTCCC
DNA 2: TGGTGGCTACGACGGGATT
B21: GACGAUA (DNA:RNA)
RNA: B2 RNA with U25G, U27C, U28G, U29A, G31A
DNA 1: CAATCTGAATTCCGGTCTCCC
DNA 2: TGGTGGCTACGACGGGATT
B22: AGUGAAG (DNA:RNA)
RNA: B1 RNA with A27U, C29A, G30A, C31G
DNA 1: CAATCTGAATTCCGGTCTCCC
DNA 2: TGGTGGCTACGACGGGATT
B23: GCCGUCA (DNA:RNA)
RNA: B1 RNA with A25G, G26C, A27C, C29U, G30C, C31A
DNA 1: CAATCTGAATTCCGGTCTCCC
DNA 2: TGGTGGCTACGACGGGATT
B24: AAGCAAU (DNA:RNA)
RNA: B1 RNA with G26A, A27G, G28C, C29A, G30A, C31U
DNA 1: CAATCTGAATTCCGGTCTCCC
DNA 2: TGGTGGCTACGACGGGATT
B25: GGCAACC (DNA:RNA)
RNA: B1 RNA with A25G, A27C, G28A, C29A, G30C
DNA 1: CAATCTGAATTCCGGTCTCCC
DNA 2: TGGTGGCTACGACGGGATT
B26: CAAUGAA (DNA:RNA)
RNA: B2 RNA with U25C, U27A, U29G, U30A, G31A
DNA 1: CAATCTGAATTCCGGTCTCCC
DNA 2: TGGTGGCTACGACGGGATT
B27: CCUAGAA (DNA:RNA)
RNA: B2 RNA with U25C, A26C, U28A, U29G, U30A, G31A
DNA 1: CAATCTGAATTCCGGTCTCCC
DNA 2: TGGTGGCTACGACGGGATT
B28: GGCGUAU (DNA:RNA)
RNA: B1 RNA with A25G, A27C, C29U, G30A, C31U
DNA 1: CAATCTGAATTCCGGTCTCCC
DNA 2: TGGTGGCTACGACGGGATT
B29: GUUCUGU (DNA:RNA)
RNA: B2 RNA with U25G, A26U, U28C, U30G, G31U
DNA 1: CAATCTGAATTCCGGTCTCCC
DNA 2: TGGTGGCTACGACGGGATT
B30: CCACGAG (DNA:RNA)
RNA: B1 RNA with A25C, G26C, G28C, C29G, G30A, C31G
DNA 1: CAATCTGAATTCCGGTCTCCC
DNA 2: TGGTGGCTACGACGGGATT
B31: CUCCAUG (DNA:RNA)
RNA: B2 RNA with U25C, A26U, U27C, U28C, U29A
DNA 1: CAATCTGAATTCCGGTCTCCC
DNA 2: TGGTGGCTACGACGGGATT

Target: T1, RBFOX1 RRM
Experiment: EMSA; HiTS-Eq, 1 nM pool, 10 min; buffer printed only for the single-RNA assays: 10 mM Tris pH 7.5, 150 mM NaCl, 3.4 mM EDTA, 0.001% NP-40, 30 C
Conditions: tags: His6 N-terminal (pET28a); label: 5' 32P
How it was run: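 Purified RbFox RRM (wild type or mutant) was equilibrated for 10 min in 50 µL with 1 nM of a 5′-radiolabelled pool of RNA with 7 randomized nucleotides, its flanks annealed to DNA oligonucleotides, across increasing protein concentrations. Free RNA was separated by 8% native PAGE, excised, reverse-transcribed, PCR-barcoded and sequenced on an Illumina HiSeq 2500. Relative association constants came from read-count changes of each variant against the control reaction, normalised to the cognate motif.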

Row | Binder | binding signal
1 | B1 | 0.0172 KA relative to UGCAUGU
2 | B2 | 0.0201 KA relative to UGCAUGU
3 | B3 | 0.00409 KA relative to UGCAUGU
4 | B4 | 0.00354 KA relative to UGCAUGU
5 | B5 | 0.00552 KA relative to UGCAUGU
6 | B6 | 0.00171 KA relative to UGCAUGU
7 | B7 | 0.0137 KA relative to UGCAUGU
8 | B8 | 0.00181 KA relative to UGCAUGU
9 | B9 | 0.0028 KA relative to UGCAUGU
10 | B10 | 0.0153 KA relative to UGCAUGU
11 | B11 | 0.00844 KA relative to UGCAUGU
12 | B12 | 0.0214 KA relative to UGCAUGU
13 | B13 | 0.0349 KA relative to UGCAUGU
14 | B14 | 0.00178 KA relative to UGCAUGU
15 | B15 | 0.00466 KA relative to UGCAUGU
16 | B16 | 0.0109 KA relative to UGCAUGU

Row | Binder | binding signal
17 | B17 | 0.0048 KA relative to UGCAUGU
18 | B18 | 0.00371 KA relative to UGCAUGU
19 | B19 | 0.00128 KA relative to UGCAUGU
20 | B20 | 0.000433 KA relative to UGCAUGU
21 | B21 | 0.0145 KA relative to UGCAUGU
22 | B22 | 0.0118 KA relative to UGCAUGU
23 | B23 | 0.0103 KA relative to UGCAUGU
24 | B24 | 0.00394 KA relative to UGCAUGU
25 | B25 | 0.00716 KA relative to UGCAUGU
26 | B26 | 0.00438 KA relative to UGCAUGU
27 | B27 | 0.00632 KA relative to UGCAUGU
28 | B28 | 0.00921 KA relative to UGCAUGU
29 | B29 | 0.0229 KA relative to UGCAUGU
30 | B30 | 0.00481 KA relative to UGCAUGU
31 | B31 | 0.00902 KA relative to UGCAUGU
